Data on 3 molecules can be found in paper PMC6281620.

Chains of the proteins cited; added tags and fusions are not shown. Lines headed by an entry give the natural chain unless they say otherwise; changes in a name come on top. Residues count along the entry.
UniProt P35918, residues 20-762: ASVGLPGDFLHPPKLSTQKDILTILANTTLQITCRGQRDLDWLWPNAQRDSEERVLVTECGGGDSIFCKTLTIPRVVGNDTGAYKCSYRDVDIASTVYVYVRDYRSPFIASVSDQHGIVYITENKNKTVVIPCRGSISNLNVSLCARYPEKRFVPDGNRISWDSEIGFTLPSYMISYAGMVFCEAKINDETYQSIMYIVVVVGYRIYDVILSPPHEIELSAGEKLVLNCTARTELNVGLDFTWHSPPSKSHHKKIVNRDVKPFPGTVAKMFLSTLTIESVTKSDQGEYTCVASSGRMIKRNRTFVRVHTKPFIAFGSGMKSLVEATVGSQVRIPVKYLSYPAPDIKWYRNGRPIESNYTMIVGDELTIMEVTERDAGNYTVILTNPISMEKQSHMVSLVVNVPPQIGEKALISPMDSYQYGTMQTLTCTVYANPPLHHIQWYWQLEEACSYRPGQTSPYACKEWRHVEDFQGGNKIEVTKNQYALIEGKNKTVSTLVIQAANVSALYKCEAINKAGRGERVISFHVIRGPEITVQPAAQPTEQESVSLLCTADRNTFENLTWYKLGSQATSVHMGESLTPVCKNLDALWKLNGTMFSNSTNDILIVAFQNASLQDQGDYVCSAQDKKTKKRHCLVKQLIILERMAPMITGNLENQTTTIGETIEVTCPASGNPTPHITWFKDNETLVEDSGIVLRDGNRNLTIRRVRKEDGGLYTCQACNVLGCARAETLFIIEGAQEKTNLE

Assay [1] has as its target T1, recombinant C-terminal Fbln7 fragment (Fbln7-C) (mouse) (UniProt Q501P1).
T1 sequence: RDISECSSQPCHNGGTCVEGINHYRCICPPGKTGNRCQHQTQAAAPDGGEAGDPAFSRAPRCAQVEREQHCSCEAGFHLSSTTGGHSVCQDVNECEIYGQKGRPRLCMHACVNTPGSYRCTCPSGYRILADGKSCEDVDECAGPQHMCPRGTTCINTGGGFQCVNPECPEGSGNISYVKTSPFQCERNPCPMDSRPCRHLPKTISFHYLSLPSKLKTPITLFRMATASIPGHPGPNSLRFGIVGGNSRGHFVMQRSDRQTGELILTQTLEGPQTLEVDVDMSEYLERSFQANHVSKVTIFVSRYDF
Kind of assay: ELISA; solid phase binding assay; 96-well dish coated with protein (1 μg/well) overnight at 4 °C; second protein in PBS (VEGF 500 pg/well, VEGFR1 and VEGFR2 10 ng/well) added for 3 hours; second protein detected by primary antibody and HRP-conjugated secondary antibody; both purified. In general terms: ELISA stands for enzyme-linked immunosorbent assay.

In assay [2] the target is T2, recombinant full-length Fbln7 (Fbln7-FL) (mouse) (UniProt Q501P1).
T2 sequence: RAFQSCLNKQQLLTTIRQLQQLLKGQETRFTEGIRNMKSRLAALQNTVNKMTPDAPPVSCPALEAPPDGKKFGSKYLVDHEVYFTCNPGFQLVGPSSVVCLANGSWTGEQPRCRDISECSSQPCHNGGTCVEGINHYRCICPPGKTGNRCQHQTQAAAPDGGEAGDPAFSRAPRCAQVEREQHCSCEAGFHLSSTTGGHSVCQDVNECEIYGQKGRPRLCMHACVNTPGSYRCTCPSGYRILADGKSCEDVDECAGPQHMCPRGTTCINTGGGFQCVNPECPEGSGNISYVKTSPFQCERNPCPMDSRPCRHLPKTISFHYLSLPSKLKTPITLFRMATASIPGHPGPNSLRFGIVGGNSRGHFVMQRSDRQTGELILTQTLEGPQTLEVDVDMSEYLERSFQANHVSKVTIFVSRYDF
Described as above.

The target of assay [3] is recombinant VEGFR2/Flk-1 Fc Chimera (UniProt P35918). Kind of assay: pull-down; VEGFR2 fused with IgG held on Dynabeads Protein G; Fbln7-C or VEGF added in incubation buffer (PBS and proteinase inhibitor) overnight at 4 °C; western blot; both purified. (In general: Immunoblotting shows a protein as a band on a membrane.)

These are yes or no findings as the source states them, for the method shown. Some entries that bind do so weakly or less than the wild type. For some assays here: Where a sequence is shown, tags or fusion partners need not be part of it.

Regarding “recombinant VEGFR2/Flk-1 Fc Chimera (from UniProt P35918 20-762) (Fc fusion)”, the binding result in assay [1] and in assay [2] was “binds” throughout.

B1: recombinant VEGFR1 Fc Chimera (Fc fusion, UniProt P35969 23-759)
chain: YGSGSKLKVPELSLKGTQHVMQAGQTLFLKCRGEAAHSWSLPTTVSQEDKRLSITPPSACGRDNRQFCSTLTLDTAQANHTGLYTCRYLPTSTSKKKKAESSIYIFVSDAGSPFIEMHTDIPKLVHMTEGRQLIIPCRVTSPNVTVTLKKFPFDTLTPDGQRITWDSRRGFIIANATYKEIGLLNCEATVNGHLYQTNYLTHRQTNTILDVQIRPPSPVRLLHGQTLVLNCTATTELNTRVQMSWNYPGKATKRASIRQRIDRSHSHNNVFHSVLKINNVESRDKGLYTCRVKSGSSFQSFNTSVHVYEKGFISVKHRKQPVQETTAGRRSYRLSMKVKAFPSPEIVWLKDGSPATLKSARYLVHGYSLIIKDVTTEDAGDYTILLGIKQSRLFKNLTATLIVNVKPQIYEKSVSSLPSPPLYPLGSRQVLTCTVYGIPRPTITWLWHPCHHNHSKERYDFCTENEESFILDPSSNLGNRIESISQRMTVIEGTNKTVSTLVVADSQTPGIYSCRAFNKIGTVERNIKFYVTDVPNGFHVSLEKMPAEGEDLKLSCVVNKFLYRDITWILLRTVNNRTMHHSISKQKMATTQDYSITLNLVIKNVSLEDSGTYACRARNIYTGEDILRKTEVLVRDSEAPHLLQNLSDYEVSISGSTTLDCQARGVPAPQITWFKNNHKIQQEPGIILGPGNSTLFIERVTEEDEGVYRCRATNQKGAVESAAYLTVQGTSDKSNLE
Regarding B1, the binding entry in assay [1] and in assay [2] was “no binding (tested: 10 ng/well)” each time.

B2: recombinant C-terminal Fbln7 fragment (Fbln7-C) (domain or fragment, UniProt Q501P1 135-440)
chain: T1 sequence
On to B2, for which the binding entry in assay [3] was “binds”.
